Substrate: CN(C)CCC=C1c2ccccc2CCc2ccccc21
Assay: cells, lysate or membranes
Conditions: other: Baculosomes

B1: P450 3A4 (insect cell microsomes with NADPH-P450 reductase) (Homo sapiens) (protein)
chain: MALIPDLAMETWLLLAVSLVLLYLYGTHSHGLFKKLGIPGPTPLPFLGNILSYHKGFCMFDMECHKKYGKVWGFYDGQQPVLAITDPDMIKTVLVKECYSVFTNRRPFGPVGFMKSAISIAEDEEWKRLRSLLSPTFTSGKLKEMVPIIAQYGDVLVRNLRREAETGKPVTLKDVFGAYSMDVITSTSFGVNIDSLNNPQDPFVENTKKLLRFDFLDPFFLSITVFPFLIPILEVLNICVFPREVTNFLRKSVKRMKESRLEDTQKHRVDFLQLMIDSQNSKETESHKALSDLELVAQSIIFIFAGYETTSSVLSFIMYELATHPDVQQKLQEEIDAVLPNKAPPTYDTVLQMEYLDMVVNETLRLFPIAMRLERVCKKDVEINGMFIPKGVVVMIPSYALHRDPKYWTEPEKFLPERFSKKNKDNIDPYIYTPFGSGPRNCIGMRFALMNMKLALIRVLQNFSFKPCKETQIPLKLSLGGLLQPEKPVVLKVESRDGTVSGA
  Km: 56 µM

Source: patent US5891696A, “Compositions for cytochrome P450 biotransformation reactions” (Panvera Corporation, priority 1997, dated 1999)
